According to patent US20240425575A1 (SOTER BIOPHARMA PTE, published 2024):
Where a chain is given by its changes, count along the chain named.

Columns and labels:
monkey ANG2 protein = target: T1, monkey ANG2 protein (monkey (cyno), UniProt O15123 275-496 (human entry), limits assumed); test: ELISA, cynoANG2 coated, anti-human Fc-HRP
T1 construct: also called cynoANG2
T1 chain: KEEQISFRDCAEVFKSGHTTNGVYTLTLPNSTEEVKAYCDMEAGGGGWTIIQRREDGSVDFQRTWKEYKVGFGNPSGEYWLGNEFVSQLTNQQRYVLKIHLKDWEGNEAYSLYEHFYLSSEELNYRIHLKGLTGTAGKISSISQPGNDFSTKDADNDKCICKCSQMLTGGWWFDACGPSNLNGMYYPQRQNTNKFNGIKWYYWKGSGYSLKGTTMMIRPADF
Experimental: (§1) An ELISA plate was coated with an ANG2 protein solution in 2 μL/well and placed overnight at 4° C. Supernatant was discarded, and 300 μL blocking solution (PBS containing 3% BSA) was added to each well and blocked for 2 h at 37° C. The anti-ANG2 heavy-chain single-domain antibodies-Fc were subjected to gradient dilution with a diluent of PBS containing 1% BSA. For example, an initial concentration of dilution was 500 nM, and the anti-ANG2 heavy-chain single-domain antibodies-Fc were diluted 10 times to 8 concentration gradients. The diluted anti-ANG2 heavy-chain single-domain antibodies-Fc were added to wells of the ELISA plate in 200 μL per well and subjected to standing incubation for 2 h at room temperature, and supernatant was discarded. Washing was performed with PBST (PBS contained 0.1% Tween 20) in 200 μL/well three times. Diluted HRP-labeled anti-human Fc secondary antibodies (SIGMA, A8667) were added in a volume of 100 μL/well and incubated for 1 h at room temperature, wherein the secondary antibodies were used after dilution according to 1:20000 with a diluent of PBS containing 1% BSA. Washing was performed with PBST in 200 μL/well five times. A TMB color developing solution (BD, 55214) was added in 100 μL/well, and color developing was performed for 8 min at 37° C. 2M HCl stopping solution was added in 100 μL/well. After the stopping solution was added, values at 450 nm were read with the microplate reader within 30 minutes. The data were analyzed by using GraphPad Prism6.0 software, and the fitting of the affinities was performed to obtain EC50 values. B2-E2-Fc has the highest affinities for the human ANG2 and monkey ANG2 proteins.

[1] = target: T2, recombinant human ANG2 protein corresponding to Lys275-Phe496 of human ANG2 (human, UniProt O15123 275-496); test: ELISA, hANG2 coated, anti-human Fc-HRP
T2 construct: also called hANG2
T2 sequence: T1 chain with V23I, L28F, V35I, A154G, G212A
Experimental: as §1

[2] = target: T3, human ANG2 protein (623-AN-025/CF, R&D) (human, UniProt O15123 19-496, limits assumed); test: flow cytometry, inhibition of human ANG2 (10 µg/mL) binding to HUVEC cells
T3 construct: His-tagged by the anti-His detection; tag not described; also called hANG2
T3 sequence (looked up): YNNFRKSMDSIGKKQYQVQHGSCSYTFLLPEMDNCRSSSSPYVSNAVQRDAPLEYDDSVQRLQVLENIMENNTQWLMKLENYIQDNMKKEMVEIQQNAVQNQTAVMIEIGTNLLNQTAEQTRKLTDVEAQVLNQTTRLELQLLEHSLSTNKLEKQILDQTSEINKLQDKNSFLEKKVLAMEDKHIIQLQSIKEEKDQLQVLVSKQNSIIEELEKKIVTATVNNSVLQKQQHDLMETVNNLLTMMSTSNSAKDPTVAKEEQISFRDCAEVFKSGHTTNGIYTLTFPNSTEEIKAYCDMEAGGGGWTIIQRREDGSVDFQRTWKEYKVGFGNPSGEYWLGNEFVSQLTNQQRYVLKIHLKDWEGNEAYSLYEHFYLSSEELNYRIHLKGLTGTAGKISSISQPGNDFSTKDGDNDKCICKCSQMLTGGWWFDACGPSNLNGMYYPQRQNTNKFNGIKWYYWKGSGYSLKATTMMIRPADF
Experimental: HUVEC cells (H-003, Allcells) in a good growth state were prepared into a single cell suspension. After cell counting, the cells were plated in a 96-well plate in 10⁵ cells/well. A final concentration of the human ANG2 protein (623-AN-025/CF, R&D) was 10 μg/mL, which was constant. The antibodies to be detected were added to each well according to an experimental design, respectively. The highest concentration of the antibodies was 1000 nM, the antibodies were subjected to 5-fold dilution in sequence and 7 concentration gradients were set in total, and meanwhile, a blank control and a positive control RG7716 (ATAD00534, Atagenix) were set. After the cells were incubated for 30 min at room temperature, cells in each well were washed three times and resuspended, and fluorescence-labeled secondary antibodies PE anti-His (362603, Biolegend) were added and incubated in darkness for 30 min at room temperature. The cells in each well were washed three times, resuspended and loaded on a flow cytometer for detection.

B1: B1-G8-Fc (Fc fusion)
chain: QVQLVESGGGLVQTGDSLRLSCVAPGISFSNRGMAWYRQAPGKQRELVAAIDSAGSQRYAGSVKDRFTISRDNAKNTVFLQMNSLKPEDTAVYYCNQPRFNLWGQGTQVTVSSGGGGSGGGGSGGGGS[human IgG1 Fc left out]
notes: also called anti-ANG2 heavy-chain single-domain antibody-Fc B1-G8-Fc
For B1, the EC50 (monkey ANG2 protein) was 0.589 nM and the EC50 [1] was 0.0392 nM.

B2: B1-G3-Fc (Fc fusion)
chain: EVQVVESGGGLVQPGGSLRLSCVASMPSGISFSNRGMAWYRQAPGKQRELVAAIDSAGSTRYQDSVKGRFTISRDNAKNTVFLQMNSLKPEDTAVYYCNQPAFKAWGQGTQVTVSSGGGGSGGGGSGGGGS[human IgG1 Fc left out]
notes: also called anti-ANG2 heavy-chain single-domain antibody-Fc B1-G3-Fc
With B2 the EC50 (monkey ANG2 protein) was 0.306 nM and the EC50 [1] was 0.0233 nM.

B3: B4-D3-Fc (Fc fusion)
chain: QLQLVESGGGLVQPGGSLRLSCVASGASGISFSNRGMAWYRQAPGKQRELVAAIDSAGSPAYAGSVKGRFTISRDNAKNTVFLQMNSLKPEDTAVYYCNQPRFNLWGLGTQVTVSSGGGGSGGGGSGGGGS[human IgG1 Fc left out]
notes: also called anti-ANG2 heavy-chain single-domain antibody-Fc B4-D3-Fc
Binder B3 has an EC50 (monkey ANG2 protein) of 0.707 nM and an EC50 [1] of 0.0424 nM.

B4: B2-E2-Fc (Fc fusion)
chain: EVQLVESGGGLVQPGESLRLSCVASGFPSGFTFSDYQMYWYRQAPGKERELVAIISNDGLRKTYADSVKGRFTISRDNAKNTMFLQMNSLKPEDTAVYVCNVRRANRDDWGQGTQVTVSSGGGGSGGGGSGGGGS[human IgG1 Fc left out]
notes: also called anti-ANG2 heavy-chain single-domain antibody-Fc B2-E2-Fc
Binder B4 has an EC50 (monkey ANG2 protein) of 0.273 nM, an EC50 [1] of 0.00584 nM and an IC50 [2] of 11.2 nM.

B5: B2-F10-Fc (Fc fusion)
chain: QVQLVESGGGLVQAGGSLRLSCGASGSAVSITLMAWYRQAPGKQRELVAGISNIGDTNYVDSVKDRFTISRINAKNAMYLQMNSLKPEDTAVYYCFAQDWGGHHYWGQGTQVTVSSGGGGSGGGGSGGGGS[human IgG1 Fc left out]
notes: also called anti-ANG2 heavy-chain single-domain antibody-Fc B2-F10-Fc
Binder B5 has an EC50 (monkey ANG2 protein) of 1.44 nM and an EC50 [1] of 1.11 nM.

B6: B4-C11-Fc (Fc fusion)
chain: QVQLVESGGGLVQAGGSLRLSCAASGSTFSNVVAGWYRQAPGKQRELVAGISNIGDTRYADSVKGRFTISRDNAKKAVYLQMNSLKPEDTAVYYCYAKYWARDYWGQGTQVTVSSGGGGSGGGGSGGGGS[human IgG1 Fc left out]
notes: also called anti-ANG2 heavy-chain single-domain antibody-Fc B4-C11-Fc
Binder B6 has an EC50 (monkey ANG2 protein) of 0.542 nM and an EC50 [1] of 2.27 nM.

B7: B1-H9-Fc (Fc fusion)
chain: B6 chain with Q1E, G10D, N31S, V32T, V33I, A77T
notes: also called anti-ANG2 heavy-chain single-domain antibody-Fc B1-H9-Fc
Work on B7 yielded an EC50 (monkey ANG2 protein) of 0.673 nM and an EC50 [1] of 2.23 nM.

B8: B3-H7-Fc (Fc fusion)
chain: B6 chain with Q1E, L4V, F29A, S30I, V32S, A77T, P87S
notes: also called anti-ANG2 heavy-chain single-domain antibody-Fc B3-H7-Fc
Binder B8 has an EC50 (monkey ANG2 protein) of 0.93 nM and an EC50 [1] of 3.51 nM.

B9: B3-C11-Fc (Fc fusion)
chain: EVQLVESGGGLVQAGGSLRLSCFVSGSTFSASLMGWYRQAPGKERELVAGISNIGNTVYADSAKGRFTISRDGAKNTVHLQMNALKPEDTAVYYCYATVPRAAWGQGTQVTVSSGGGGSGGGGSGGGGS[human IgG1 Fc left out]
notes: also called anti-ANG2 heavy-chain single-domain antibody-Fc B3-C11-Fc
For B9, the EC50 (monkey ANG2 protein) was 0.624 nM and the EC50 [1] was 0.241 nM.

B10: B2-A6-Fc (Fc fusion)
chain: B9 chain with E1Q, V2L
notes: also called anti-ANG2 heavy-chain single-domain antibody-Fc B2-A6-Fc
In the case of B10, the EC50 (monkey ANG2 protein) is reported as 0.641 nM and the EC50 [1] is reported as 0.262 nM.
